This is one part of the list. At the low end of the ranking, values are background and their order means little.
target: T1, GST-Rok-C97-191 (UniProt O34857); assay: protein binding microarray; settings: Rok is a gene silencer of Bacillus subtilis; high values mean tight binding; most listed sequences are background and not binding sites; double strand, one strand shown;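 note: rank score from −0.5 (least bound) to 0.5 (best bound)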
T1 sequence: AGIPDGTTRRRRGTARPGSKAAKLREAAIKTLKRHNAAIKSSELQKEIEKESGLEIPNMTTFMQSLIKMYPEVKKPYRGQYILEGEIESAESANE

Row | Sequence | binding signal [E-score]
1 | ACTCGCAG | -0.105
2 | GAGCCTGC | -0.0866
3 | GAGAGCGA | -0.0867
4 | CTGATACA | 0.166
5 | ACCAACGT | 0.0973
6 | GAGGGGGC | -0.379
7 | AAAGTGGC | -0.00226
8 | AGCGCAAA | 0.09
9 | AAAGCGGA | 0.152
10 | AATTTATC | 0.233
11 | TAAGAATA | 0.162
12 | GCCATCGC | -0.142
13 | CGACTAGC | 1.3e-05
14 | AAACGCAC | -0.0855
15 | ATTGCACC | 0.0239
16 | ATAAGCCC | -0.0847
17 | GACCCACA | -0.038
18 | ACAACGCT | 0.00207
19 | TCATTGAA | 0.0482
20 | AGAGAGAA | -0.0177
21 | AAATATAC | 0.401
22 | ACATAGTA | 0.298
23 | CGGGGTAG | 0.00851
24 | CCCACCCC | -0.295
25 | GCTAAACC | 0.00369

Row | Sequence | binding signal [E-score]
26 | ATCCTCGC | -0.169
27 | CCGGTCGA | -0.00159
28 | AACTCGGA | 0.0454
29 | AAGTGACA | -0.055
30 | CCAACGAC | -0.172
31 | GTCGTCAC | -0.118
32 | CACGGGAG | -0.217
33 | GGCTGGGA | -0.344
34 | TAATGGGA | -0.157
35 | CGCCGCCC | -0.41
36 | CAAACCGA | -0.0264
37 | ATTCTCAC | 0.193
38 | ATGCGCGA | -0.0205
39 | ACCCGTCT | -0.171
40 | GAAATTTC | 0.128
41 | CCGGCAAC | -0.129
42 | AGTAATTC | 0.273
43 | TGACACCA | 0.0252
44 | AAGAAGGC | -0.29
45 | CTCTGACC | -0.368
46 | CAGAGGAC | -0.183
47 | ACCCATAT | 0.0623
48 | CAACTTCA | 0.0498
49 | GACGAATA | 0.0978
50 | GGTCCCTA | -0.126

Row | Sequence | binding signal [E-score]
51 | CTCTTTAA | 0.03
52 | AGAGCTTG | -0.178
53 | AAGCACCA | -0.21
54 | CGCTCCGC | -0.161
55 | CATTCCTA | 0.000602
56 | ACTTCATA | 0.236
57 | CCACCAGC | -0.203
58 | AAAGCACC | -0.103
59 | CGGCTGGC | -0.257
60 | GCTAGCAC | -0.0307
61 | CATTTTGC | -0.0411
62 | AGCGGTGC | -0.275
63 | CAACTATC | 0.156
64 | GCTATATA | 0.355
65 | AGGGGTGC | -0.343
66 | AATTTTCA | 0.109
67 | CACATATC | -0.0359
68 | CGTAGCGC | -0.128
69 | AAAGTAAA | 0.197
70 | CATTGATA | 0.26
71 | GCCCACCA | -0.364
72 | CTTGCCTA | -0.152
73 | TAACAGCA | 0.0222
74 | GCAACCGC | -0.193
75 | AATACACA | 0.173

Row | Sequence | binding signal [E-score]
76 | ACCGATTC | 0.072
77 | ACTGAACT | 0.0777
78 | ACCTGGTC | -0.207
79 | ATAATCAC | 0.217
80 | TGATCGCA | -0.0559
81 | AGGGGCTC | -0.288
82 | CATCTGAC | 0.00145
83 | ACAAGTTG | 0.046
84 | GACCAGGC | -0.104
85 | GGTCTAAC | -0.0569
86 | AAGTATGT | 0.13
87 | CCGGCTCG | -0.334
88 | CCGCCTTC | -0.191
89 | CGGAGGCC | -0.301
90 | CCTCTATC | -0.166
91 | TAATCGAA | 0.222
92 | GCGCTGAC | -0.215
93 | ACGTGGTC | -0.292
94 | CATGCCGA | 0.131
95 | AACTCTTA | 0.13
96 | ACACAGTA | 0.137
97 | CACCTTAG | -0.178
98 | ATAACACC | 0.253
99 | GACATCTA | 0.128
100 | AGCGCCTG | -0.294

Row | Sequence | binding signal [E-score]
101 | CTTGAGTA | 0.0201
102 | GGACGCAC | -0.212
103 | TAAACGTA | 0.257
104 | ATGACTCC | -0.034
105 | ATGCAAGC | -0.0317
106 | GACGTAAC | -0.073
107 | GTTTCCCA | -0.06
108 | CGCCTGTA | 0.000307
109 | GCAGTGAC | -0.235
110 | ACAAAAAC | 0.124
111 | ATCTTATC | 0.143
112 | ATTCGTAA | 0.211
113 | ACCTAGGT | 0.0131
114 | GCGACAGA | -0.0213
115 | ATGTGCAG | -0.0615
116 | ACTGTGCC | -0.0903
117 | ACGAGCAG | -0.19
118 | AGGTTCCA | -0.0965
119 | ACGAGCGA | -0.172
120 | CGGCAAAG | -0.346
121 | GCACGCCC | -0.349
122 | CTGGCCTC | -0.315
123 | GATTGAAC | -0.046
124 | AACGAGTG | 0.0432
125 | ATATCCCA | 0.184

Row | Sequence | binding signal [E-score]
126 | CGCAAGAG | 0.0284
127 | TACCTCAA | 0.133
128 | CGCTTTGC | -0.256
129 | AACATTCT | 0.135
130 | AGCCGGAA | -0.0919
131 | CATTCCCA | -0.0834
132 | CGCAAAAG | -0.0768
133 | AAAAACCC | 0.157
134 | CTACCATC | 0.421
135 | CAACCGCG | -0.0951
136 | ATACTTCC | 0.264
137 | CAAGCGGG | -0.388
138 | AACTCACT | 0.0823
139 | ACGTGGAT | -0.0764
140 | AGATACTA | 0.316
141 | GAGGCTTA | -0.241
142 | CGCGAGGA | -0.266
143 | GTAGAAGA | 0.304
144 | GACGATGA | -0.192
145 | CATCATGC | -0.0679
146 | CCTTAGGA | 0.047
147 | AAACTTTC | 0.181
148 | ACACATAA | 0.133
149 | CACCCGAA | -0.177
150 | GCGGGGAC | -0.343

Row | Sequence | binding signal [E-score]
151 | AATCGAGG | 0.182
152 | CGTGAGCC | -0.289
153 | AGTTCGTC | 0.0996
154 | AGCCGTGA | -0.124
155 | CACAAGCG | 0.0221
156 | AAGTTTCT | 0.261
157 | AGAATGAG | 0.0362
158 | ACAGTGTG | -0.0809
159 | GCAATTAC | 0.13
160 | ACTGATCA | 0.0266
161 | AATACGAC | 0.0254
162 | AACGCCGT | -0.0527
163 | ACACATCT | 0.11
164 | AGACGCAT | -0.121
165 | ATCAGCAA | 0.0758
166 | ACTGTGAT | 0.117
167 | ACGATAGC | 0.223
168 | ATATCGTA | 0.263
169 | AATAAGAC | 0.0721
170 | GGAGAATA | 0.0969
171 | TATTTTCA | 0.154
172 | GCTAATCA | -0.0222

Source: article PMC6212790
